Consider 38 molecules from the supplement of paper PMC8748497.

The other results are listed elsewhere or left out.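 Rule for the calls: active = GRHL reporter fold change of at least 2 over DMSO at 10 µM; inactive = below 2-fold.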 Most values come without repeats; read them as rough.
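Note: stable HEK293 line carrying repeated GRHL consensus sites upstream of a minimal promoter driving luciferase, luminescence read 24 h post-treatment, normalized to 0.5% DMSO vehicle wells.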

The subject of the assay is HEK293 GRHL-luciferase reporter. Put plainly: GRHL luciferase reporter activity, fold change over DMSO control; higher = stronger GRHL reporter activation. The note with it: 10 µM; 24 h. (In general: In a reporter assay the amount or activity of a reporter protein is the signal.)
On to `CC[C@@H](C(=O)O)[C@@H]1O[C@@H]([C@@H](C)[C@H](O)[C@H](C)C(=O)[C@H](CC)[C@H]2O[C@]3(C=C[C@@H](O)[C@]4(CC[C@@](C)([C@H]5CC[C@](O)(CC)[C@H](C)O5)O4)O3)[C@H](C)C[C@@H]2C)[C@@H](C)C[C@@H]1C`, for which the “GRHL luciferase reporter activity” value was inactive: 1.18. On to `CCn1cc(C(=O)O)c(=O)c2cc3c(cc21)OCO3`, for which the “GRHL luciferase reporter activity” value is inactive: 1.01.

Consider `C=C(C)[C@H]1Cc2c(ccc3c2O[C@@H]2COc4cc(OC)c(OC)cc4[C@@H]2C3=O)O1`, for which the “GRHL luciferase reporter activity” value was active: 5.27. The same measure for `N#CCCN`: inactive: 0.935. As to `O=[N+]([O-])C(Br)(CO)CO`, the “GRHL luciferase reporter activity” value was inactive: 1.04. `CO[C@]12C[C@@H](COC(=O)c3cncc(Br)c3)CN(C)[C@@H]1Cc1cn(C)c3cccc2c13`: the “GRHL luciferase reporter activity” value was inactive: 1.06. For the molecule `NC(=O)CN1CCCC1=O`, the “GRHL luciferase reporter activity” value was inactive: 0.971. On to `C=C[C@H]1CN2CC[C@H]1C[C@@H]2[C@@H](O)c1ccnc2ccccc12`, for which the “GRHL luciferase reporter activity” value was inactive: 0.942. In the case of `CCC1(CC)C(=O)C=CNC1=O`, the “GRHL luciferase reporter activity” value is inactive: 1.16. Turning to `CC[C@H]1CN2CCc3cc(OC)c(OC)cc3[C@@H]2C[C@@H]1C[C@H]1NCCc2cc(OC)c(OC)cc21`, the “GRHL luciferase reporter activity” value was inactive: -0.0305. In the case of `CN[C@@H]1[C@@H](O)[C@@H](O[C@@H]2[C@@H](O)[C@H](O[C@H]3O[C@H]([C@@H](C)O)[C@@H](O)[C@H](O)[C@H]3N)[C@@H](N)C[C@H]2N)OC[C@]1(C)O`, the “GRHL luciferase reporter activity” value is inactive: 1.19. In the case of `C[C@]12CC[C@@H](O)C[C@@H]1CC[C@@H]1[C@@H]2CC[C@]2(C)C(=O)CC[C@@H]12`, the “GRHL luciferase reporter activity” value is inactive: 0.606. For the molecule `CNC(C)(C)Cc1ccccc1`, the “GRHL luciferase reporter activity” value is inactive: 0.805. Under `CC(C)C[C@H](CN)CC(=O)O` stands inactive: 0.914. The same measure for `c1cncc([C@@H]2CCCCN2)c1`: inactive: 0.863; for `CC(O)CN1CCN(CC(=O)[O-])CCN(CC(=O)[O-])CCN(CC(=O)[O-])CC1.[Gd+3]` (stereo not drawn): active: 5.55. `CNC1CC(N)C(O)C(OC2OC(CO)C(O)C3OC4(OC(C(N)CO)C(O)C(O)C4O)OC23)C1O` (stereo not drawn): the “GRHL luciferase reporter activity” value was inactive: 0.991.

Consider `O=C(O)CF`, for which the “GRHL luciferase reporter activity” value was inactive: 0.98. On to `CN(C)[C@@H]1C(=O)C(C(N)=O)=C(O)[C@@]2(O)C(=O)C3=C(O)c4c(O)ccc(Cl)c4[C@@](C)(O)[C@H]3C[C@@H]12`, for which the “GRHL luciferase reporter activity” value is inactive: 0.9. Under `O=C(O[C@H]1C[C@H]2CC[C@@H](C1)[N+]21CCCC1)C(O)(c1ccccc1)c1ccccc1` stands inactive: 0.992; under `COC[C@]12CN(C=O)[C@@H]3[C@@H]4[C@H](OC)[C@H]1[C@@]3([C@@H](OC)C[C@H]2O)[C@@H]1C[C@@]2(O)[C@H](OC(=O)c3ccccc3)[C@@H]1[C@]4(OC(C)=O)[C@@H](O)[C@@H]2OC`, inactive: 1.08; under `COc1cccc(C=O)c1OC`, inactive: 1.39. Turning to `Cc1ncc(CNC(=O)N(CCCl)N=O)c(N)n1`, the “GRHL luciferase reporter activity” value is inactive: 1.05. On to `CC1=CC(=O)c2c(O)cccc2C1=O`, for which the “GRHL luciferase reporter activity” value was inactive: 0.0693. As to `C=CCSSCC=C`, the “GRHL luciferase reporter activity” value was inactive: 0.997. Take `CC(=O)[O][Hg][c]1ccccc1`: the “GRHL luciferase reporter activity” value was inactive: -0.0105. Under `NC(=O)C[S@@+]([O-])C(c1ccccc1)c1ccccc1` stands inactive: 1.06; under `CNC(C)[C@H](O)c1ccccc1` (stereo partly drawn), inactive: 0.967. In the case of `COc1cc2c(c(OC)c1OC)-c1ccc(O)c(=O)cc1[C@@H](N)CC2`, the “GRHL luciferase reporter activity” value was inactive: 0.941. For the molecule `COc1cc(C=O)cc(OC)c1OC`, the “GRHL luciferase reporter activity” value is inactive: 1.31. The same measure for `C[CH2][Hg][S]c1ccccc1C(=O)[O-].[Na+]`: active: 228; for `Nc1ncn[nH]1`: inactive: 1.04; for `C[N+]1([O-])[C@@H]2CC[C@H]1C[C@@H](OC(=O)C(CO)c1ccccc1)C2` (stereo partly drawn): inactive: 0.946. Take `C=CCc1ccc2c(c1)OCO2`: the “GRHL luciferase reporter activity” value was active: 2.37.

As for `CC(=O)CC1CCCCN1` (stereo not drawn), the “GRHL luciferase reporter activity” value is inactive: 0.143. Under `COc1cc2c(cc1OC)[C@H](C)NCC2` stands inactive: 1.21; under `N#CN=C(N)N`, inactive: 1.09; under `CC1(C)C2CC(=O)[C@]3(C)C(CC[C@@]4(C)[C@H](c5ccoc5)OC(=O)[C@H]5O[C@]543)[C@@]2(C)C(=O)C[C@H]1O` (stereo partly drawn), inactive: 0.893.
